PubChem BioAssay AID624171 (National Center for Advancing Translational Sciences (NCATS), 2012)
Values joined by “and” are separate entries in the source; they are usually repeats but may differ in a detail not shown here. Identical values can stand only once. The whole screen tested about 410,000 compounds, of which about 1,200 (0.29%) were called active. This list was built around the results that the source calls inconclusive (neither active nor inactive); the mix of calls is not that of the screen. Calls come from the whole dose curve; as a rule, active = well fitted activation curve with a large enough effect; inconclusive = small, poorly fitted or top-dose-only effect; inactive = flat fitted curve, though single readings scatter. Potencies of inconclusive entries are doubtful fits and often do not repeat.

assay: qHTS of Nrf2 Activators; conditions: AREc32 ARE-luciferase reporter (MCF7-derived line), luminescence, 24 h; activation: at 46.1 µM (top of the series); note: nearly all actives have a fitted effect of over 65% in size; for activation: % of control where 0% means no effect
How it was run: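 Steps: seed AREc32_Fluc cells (1000/well, 5% FBS OPTI-MEM); incubate overnight at 37 deg C; add 23 nL compound; incubate 24 hr; add Steady-Glo; hold 30 min RT; read luminescence.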
Potency is the fitted concentration of half-maximal effect; tags give direction and shape of the fitted curve.

Potency, active:
CSc1nsc(SC)c1C(=O)Nc1ccc(C(C)(C)C)cc1 11.2 µM
COc1ccccc1C(=O)NNC(=O)c1cccc(Br)c1 6.31 µM
O=[N+]([O-])c1ccccc1/C=N/Nc1nccnc1Cl 6.31 µM
O=C(CSC1=Nc2ccccc2C2CC=NN12)NCc1ccco1 (centres undefined) 0.631 µM
Fc1ccc2c(c1)/C(=N/Nc1ccccn1)CCS2 11.2 µM
Cc1ccnc(NC(=O)c2ccco2)n1 12.6 µM
c1ccc(Cn2ncc3c(NCc4ccco4)ncnc32)cc1 3.98 µM

Potency, inconclusive:
Cc1ccc(CNC(=O)CSc2c3c(nc4cc(Cl)ccc24)CCCC3)o1 20 µM [activator, single point]
Cc1cc(NC(=O)C2CCCCC2)nc2c1c(=O)oc1ccccc12 15.8 µM [activator, partial curve, poor fit]
C=CCn1c(=NC(=O)c2cc(Cl)sc2Cl)sc2cc(S(N)(=O)=O)ccc21 3.98 µM [activator, full curve]
O=C(CCl)Nc1cccc(CP(=O)(c2ccccc2)c2ccccc2)c1 3.98 µM [activator, single point]
O=C1NC(=S)N/C1=C/c1cccc([N+](=O)[O-])c1 12.6 µM [activator, partial curve, poor fit]
Cc1ccc(C)c2[nH]c(=O)c(C(c3nnnn3C(C)(C)C)N3CC=C(c4ccc(F)cc4)CC3)cc12 (centres undefined) 12.6 µM [activator, partial curve, poor fit]
Cc1ccc(C(=O)c2c3ccc([N+](=O)[O-])cc3[n+]([O-])n2CCCC(N)=O)cc1 17.8 µM [activator, partial curve, poor fit]
CCOC(=O)/C=C(/C)N1N=C(c2ccc(OC)cc2)CC1c1cccc([N+](=O)[O-])c1 (centres undefined) 35.5 µM [activator, single point]
CC(C)c1cc(C(=O)N/N=C/C(Br)=C/c2ccccc2)n[nH]1 2.82 µM [activator, partial curve, poor fit]
CC(=O)Cn1nnc2sc(-c3ccccc3)cc2c1=O 2.51 µM [activator, full curve, poor fit] and 1.12 µM [activator, full curve, poor fit]
O=C(Nc1cc(Cl)ccc1Cl)c1cc(-c2ccco2)on1 0.562 µM [activator, full curve, poor fit]
O=C(c1ccco1)c1cn(CC(=O)N2CCCc3ccccc32)c2ccccc12 1.12 µM [activator, full curve, poor fit]
CCC(=O)Nc1sc2c(c1C#N)CCC2 10 µM [activator, partial curve]
N#CCCn1[nH]c(-c2ccccc2)cc1=O 17.8 µM [activator, partial curve, poor fit]
Cc1cc(=O)[nH]c(SCC(=O)Nc2nc(-c3ccccc3)cs2)n1 17.8 µM [activator, single point]
O=C(Nc1nnc(-c2ccco2)o1)c1ccc(Br)s1 17.8 µM [activator, single point]
COc1ccc(/C=C2\C(=O)OCc3cc(OC)c(OC)cc32)cc1OC 14.1 µM [activator, single point]
COc1ccccc1-c1cc(C(=O)NCc2ccco2)no1 22.4 µM [activator, single point]
CCC(NC(=O)CCl)c1ccc(C)cc1 (centres undefined) 31.6 µM [activator, single point]
CCOC(=O)c1c(NC(=O)/C=C/C(=O)O)sc(C)c1-c1ccc(F)cc1 25.1 µM [activator, single point]
COc1cc2c(c(Br)c1N)-c1cc(Br)c(N)cc1C2=O 3.55 µM [activator, full curve]
CC(=O)Oc1ccc(Cl)cc1/C=C/c1ccc2ccccc2n1 2.51 µM [activator, full curve, poor fit]
O=C(Nc1ccc(S(=O)(=O)NC2=NCCCCC2)cc1)c1ccc([N+](=O)[O-])s1 3.16 µM [activator, single point]
C/C(=N\N=C1\NC(=O)C(CC(=O)Nc2ccc(Cl)cc2)S1)c1ccco1 (centres undefined) 11.2 µM [activator, partial curve, poor fit]
COCCCNC(=O)CSc1c2c(nc3ccc(Cl)cc13)CCCC2 5.62 µM [activator, full curve]
Cc1ccc(OCC(=O)Nc2cccc3ccccc23)c([N+](=O)[O-])n1 7.08 µM [activator, partial curve, poor fit]
O=C1CN(C(=O)Cn2ncc(Cl)c(Cl)c2=O)c2ccccc2N1 0.562 µM [activator, full curve, poor fit]
Cc1ccc(-c2n[nH]c(=S)n2/N=C/C=C/c2ccccc2[N+](=O)[O-])cc1 25.1 µM [activator, single point]
CC(C)c1ccc(O)c(NC(=O)c2cncc(Br)c2)c1 11.2 µM [activator, partial curve]
Cn1c(CCN2CCCC2)nc2cc(NS(=O)(=O)c3ccc(F)cc3)ccc21 25.1 µM [activator, single point]
Cc1onc(-c2ccccc2)c1C(=O)N/N=C/C(Br)=C/c1ccccc1 22.4 µM [activator, partial curve, poor fit]
Cc1ccc2c(c1)N=C(c1ccc(Cl)cc1)CO2 22.4 µM [activator, single point]
CC(=O)Nc1nc(CC(C)C)cc(-c2ccco2)c1C#N 11.2 µM [activator, partial curve]
CC(=O)Nc1c(Cl)cc2c(c1Cl)Cc1cc(C#N)ccc1-2 15.8 µM [activator, single point]
Nc1ccc(N=Nc2ccccc2)cc1[N+](=O)[O-] 1.58 µM [activator, partial curve, poor fit]
Cc1csc(NC(=O)CSc2nc3[nH]c(=O)cc(O)c3s2)n1 3.98 µM [activator, single point]
Fc1ccccc1/C=C/c1ccc2ccccc2n1 2.51 µM [activator, partial curve, poor fit]
CSC1=N/C(=C\c2ccc(Cl)cc2)C(=O)N1N(C)C 6.31 µM [activator, partial curve, poor fit]
CCCCOc1ccc(C(=O)CCN2CCOCC2)cc1 3.16 µM [activator, single point]
CCOC(=O)c1c(NC(C)=O)sc2c1CCC(C=O)=C2Sc1ccccc1 7.08 µM [activator, partial curve, poor fit]
Cc1ccc2nc(-c3ccc(O)cc3)c(Nc3ccc4c(c3)OCCO4)n2c1 25.1 µM [activator, single point]
N#Cc1c(N)oc(-c2ccco2)c1-c1ccco1 15.8 µM [activator, single point]
N#CC1=C(SCC(N)=O)NC2=C(C(=O)c3ccccc32)C1c1ccc(Cl)cc1 (centres undefined) 15.8 µM [activator, single point]

activation, inactive:
Cc1cc(C)nc(SCC(=O)N2CCOCC2)n1 -0.0545%
NC(=O)N/N=C/c1ccc([N+](=O)[O-])o1 3.25%
Cc1ccc(-c2cc(C(=O)N3CCN(c4ccc(F)cc4)CC3)c3ccccc3n2)o1 7.26%
Cc1oc2ncnc(N3CCCCC3)c2c1C(=O)NCC1CCN(Cc2ccc(F)cc2)CC1 -0.643%
NS(=O)(=O)c1ccc(NC(=S)Nc2ccc(S(=O)(=O)Nc3nccs3)cc2)cc1 0.175%
O=C1C=C(N(CCO)Cc2ccccc2)c2ccccc2C1=O -2.59%
CCN(C(=O)Cn1ncc2c1-c1cc(C)ccc1OC2)c1cc(Cl)ccc1OC 7.91%
CCOc1cc(/C=C2\SC(=N)N(c3nccs3)C2=O)ccc1OCCN1CCOCC1 0.338% [at 9.22 µM]
CCOc1ccc(C2c3c(oc4ccc(C)cc4c3=O)C(=O)N2Cc2ccc3c(c2)OCO3)cc1OC (centres undefined) 0.407%
O=C(C1=NOC2(C1)C(=O)Nc1ccccc12)N1CCOCC1 (centres undefined) -0.898%
Cn1cc(CN2CCCC(C(=O)Nc3ccc(-c4cccc(F)c4)cc3)C2)cn1 (centres undefined) -3.92%
CC(C)OCCCNC(=O)CCCn1c(SCC(=O)c2ccc(F)cc2)nc2c(sc3ccccc32)c1=O -0.856%
O=Nc1c(-c2c(O)[nH]c3cc(Br)ccc23)[nH]c2ccccc12 -2.22%
COc1ccc(C(c2nnnn2CCc2ccccc2)N2CCN(C3CCCC3)CC2)cc1 (centres undefined) -0.454%
Cc1ccccc1NC(=O)c1ccc(N/N=C/c2ccccc2O)c([N+](=O)[O-])c1 -0.61%
Cc1cc(C)c2sc(N(Cc3cccnc3)C(=O)CCS(=O)(=O)c3ccccc3)nc2c1 7.1%
COCCNC(=O)c1c(N)n(CCCn2ccnc2)c2nc3ccccc3nc12 0.83%
CN(C)S(=O)(=O)N1CCN(c2ccccc2)CC1 -0.115%
CCOC(=O)C1=CC[C@@H](c2ccccc2)N(S(=O)(=O)c2ccc(C)cc2)[C@H]1C=C(C)C 3.17%
